# Measurements from ChEMBL document CHEMBL4888484, “Replenishing the malaria drug discovery pipeline: Screening and hit evaluation of the MMV Hit Generation Library 1 (HGL1) against asexual blood stage Plasmodium falciparum ,using a nano luciferase reporter read-out” (2022).
# About 540 (0.36%) of roughly 150,000 compounds showed an effect of 50% or more. This is one part of the list.
# Tested on: Plasmodium falciparum
# Assay: Primary screen in NF54 nanoGlo assay, in single point, at 2uM, 72h; a lower Z score goes with more inhibition
# Assay type: functional, Erythrocyte
# Conditions: timepoint 72 hour
Compound,% Inhibition,Z score
N#Cc1nccnc1NCCc1ccc[nH]1,-6%,0.52
CCOCC1CCN(C(=O)C2(c3ccccc3)CCCN2)C1 (stereo not drawn),-14%,1.55
COC1(C(=O)NCc2ccc(S(C)(=O)=O)s2)CCCCCC1,8%,-0.99
O=C([C@H]1CC(=O)N(c2ccc(O)cc2)C1)N1Cc2cnn(CCO)c2C1,-9%,1.62
CNC(=O)c1cc(NCCc2ccccc2OC)ccn1,3%,-0.51
C[C@@H]1COCCN(C(=O)Nc2cccc(OCC(=O)N3CCCC3)c2)C1,-7%,1.05
C[C@H](OC(=O)CCC1CCCCC1)C(=O)Nc1ccc2c(c1)OCCO2,-5%,0.46
O=C(NCC(F)(F)F)[C@H]1CCc2nn(CCOc3ccccc3)c(=O)n2CC1,0%,0.03
COc1ccc(NC(=O)c2nc(-c3ccoc3)n(-c3ccc(C)cc3)n2)cc1,-18%,3.16
CCN1CCC(NC(=O)c2ccc(Cl)o2)(C(F)(F)F)CC1,-4%,0.77
CC(C)N1CC(=O)N([C@H]2CC(C)(C)Oc3ccc(F)cc32)C1=O,3%,-0.39
Cc1nn(C)c(C)c1NC(=O)c1cc(Cc2ccccc2)n[nH]1,-9%,1.8
CCn1ccc(CN(C)CC[C@H]2CCCCO2)n1,3%,-0.43
CCCNC(=O)[C@@H](NC(=O)c1ccc(OC)cc1)C1CCN(C(=O)CC)CC1,13%,-1.75
CN(CC(=O)O)C1CCN(C(=O)Nc2cccc(C#Cc3ccccc3)c2)CC1,-1%,0.1
CCc1nccn1CC(=O)N1CC[C@@H]2OCc3cccc(c3)Oc3cc(OC(C)C)cc(c3)C(=O)N(CC)CC(=O)N[C@H]2C1,10%,-1.39
O=C1CCC2(CCN(Cc3ncon3)CC2)CN1C1CC1,-19%,1.78
O=C(O)[C@H](O)c1ccc(-c2cccc(-c3ccn[nH]3)c2)cc1,-8%,1.13
O=C(CC1CCCC1)N1CCC[C@H](CN2CCN(c3ccccn3)CC2)C1,-4%,0.7
CC(=Cc1ccccc1)CN1CCC[C@H](n2cc(CO)nn2)C1,-19%,2.18
O=C(C[C@@]1(O)C(=O)N(CN2CCOCC2)c2ccccc21)c1ccccc1Cl,13%,-2.03
FC1(F)CCN(Cc2cnc(N3CCCC3)s2)CC1,-10%,1.58
CCCNC(=O)CN1C(=O)CCn2nc(-c3ccc(Cl)cc3)cc21,-11%,1.09
O=C(Cc1cccn1-c1cccc(Cl)c1)NCCN1CCCC1,-5%,0.78
CCCN(CCC)C(=O)Nc1ccc(Cl)c(C#N)c1,-14%,2.87
CC(C)(NCC(=O)NC(N)=O)c1ccc(Br)cc1,-13%,2.15
CCn1ncnc1CNC(=O)N[C@H]1CCCCc2cc(Br)ccc21,0%,0.02

Compound,% Inhibition,Z score
O=C(NCc1ccoc1)NC[C@@H]1COc2ccccc2C1,-9%,1.73
O=S(=O)(NC1CC2CCC1C2)c1ccco1 (stereo not drawn),-5%,0.73
COCCN(Cc1csc(-c2ccoc2)n1)CC(F)(F)F,-16%,3.09
O=C1OCC2(CCN(C(=O)Nc3ccccc3-c3ccccc3)CC2)O1,6%,-0.62
COc1ccc(NC(=O)c2ccc(NC(=O)[C@@H]3CCN(C)C3=O)cc2)cc1,3%,-0.55
Cc1ccc(Nc2n[nH]c(N)c2NC(=O)c2ccc(C)cc2)cc1,0%,0.05
CC(C)(C)OC(=O)NC[C@H]1CCCc2ccc(C(=O)O)cc21,0%,-0.07
O=C1CN(C(=O)CN2CCN(S(=O)(=O)c3ccccc3)CC2)c2ccccc2N1,-6%,0.75
Cn1cc(CNCc2cccc(C3(C)OCCO3)c2)c(C(C)(C)C)n1,-6%,0.95
CN(C)CCN1CCC(Nc2nccc3ccc(F)cc23)CC1,4%,-0.64
COc1cccc(-c2cc3n(n2)CCCN(C(=O)CC(C)C)C3)c1,-9%,0.95
N#Cc1ccc(F)c(CNC(=O)N2CCO[C@H](c3ccsc3)C2)c1,-1%,0.15
CCC(=O)N1CCN(c2nc(-c3ccccc3)nc(CC)c2Cc2cccc(Cl)c2)CC1,-25%,2.24
Cc1cc(F)ccc1CN(C)C(=O)c1ccc2c(c1)C(=O)NCCO2,-8%,1.62
Cc1ccc(C(=O)N2CCC[C@H]2c2nc3ccccc3s2)c(=O)[nH]1,-13%,1.71
CCCOC1(c2noc([C@H]3CCOC3)n2)CCCCC1,8%,-1.09
CCOCC(=O)NCc1cc2n(n1)CCCNC2,5%,-0.62
CCc1ncc(C(=O)NCc2cc(-c3cccc(Cl)c3)no2)cn1,3%,-0.56
Cc1ccnc(C[C@H](C)N2CCC(N3CCC(C(=O)NC4CC4)CC3)CC2)c1,-5%,0.77
O=C1CCc2cc(S(=O)(=O)N3C[C@@H]4[C@@H]5CC[C@@H](C5)[C@@H]4C3)ccc2N1,-9%,1.06
Cc1cc(C)c(CNC(=O)c2cnn(C)c2C)c(=O)[nH]1,-9%,1.13
C=CCCC(=O)N1CC[C@H](Oc2ccnc(C)n2)C1,-5%,0.77
Clc1ccc(-c2cc3c(N4CCC(N5CCCCC5)CC4)nccn3n2)cc1,2%,-0.32
CCOc1ccc(-c2c(-c3ccccc3)ncn2C[C@H]2CCCO2)cc1CO,-7%,1.01
CC(C)CN1CCN(c2nccnc2N(C)C)CC1=O,-17%,1.93
O=C(O)Cn1nc(C2CC2)c2c(C(F)(F)F)cc(-c3ccccc3)nc21,31%,-3.53
Cc1cc(CC(=O)N2CC(c3ccc(F)cc3)CC2C)no1 (stereo not drawn),-14%,2.1
